Measured values reported in EP0243717A1 (priority 1986, dated 1987).
In brackets after ≈: the same amount, converted by molar mass. Like-named read-outs stand apart in the source and are kept apart here.

Columns and labels:
[1] = test system: Treponema hyodysenteriae B 204
[2] = test system: Mucor racemosus KF 223 (IFO 4581); assay: microbe, parasite or virus in culture; settings: Medium E
Source text: (§1) For reference, the minimum growth inhibition concentrations (MIC) to various bacteria of above five drugs and Lankacidin C are shown in Table 3.

[3] = test system: C. kainantoi KB 133 (IFO 3353); assay: microbe, parasite or virus in culture; settings: Clostridium butyricum, IFO3353
Source text: as §1

[4] = test system: C. novyi KB 136 (ILD 140); assay: microbe, parasite or virus in culture; settings: Clostridium novyi; Medium B; read-out: MIC
Source text: as §1

[5] = Treatment A, hygromycin A 10 g/ton feed, Total
[6] = Treatment A, hygromycin A 10 g/ton feed, per group (Group No. 6, 9)
[7] = Treatment B, hygromycin A 5 g/ton feed, Total
[8] = Treatment B, hygromycin A 5 g/ton feed, per group (Group No. 1, 8)
[9] = Treatment C, hygromycin A 1 g/ton feed, Total
[10] = Treatment C, hygromycin A 1 g/ton feed, per group (Group No. 2, 5)
[11] = Mucor racemosus, IFO4581, read-out: MIC

How did the “General appearance : No of pig days Depressed” value [1, 5] turn out when CC(=O)[C@H]1O[C@@H](Oc2ccc(/C=C(\C)C(=O)N[C@@H]3[C@H](O)[C@@H](O)[C@H]4OCO[C@H]4[C@@H]3O)cc2O)[C@@H](O)[C@@H]1O [Hygromycin A, hygromycin A] was run?
Its value is 0 pig days.

And the “General appearance : No of pig days Moribund” value [1, 5]?
Its value is 0 pig days.

What about the “General appearance : No of pig days Normal” value [1, 5] of the same compound?
The value was 290 pig days.

And the “General appearance : share of pig days Normal” value (shortened to “General appearance : share”) [1, 5]?
Its value is 100%.

What about the “General appearance : No of pig days Depressed” value [1, 6] of the same compound?
The value was 0 pig days.

What about the “General appearance : No of pig days Moribund” value [1, 6] of the same compound?
Its value is 0 pig days.

What about the “General appearance : No of pig days Normal” value [1, 6] of the same compound?
Its value is 145 pig days.

And the “General appearance : No of pig days Depressed” value [1, 7]?
Its value is 0 pig days.

What about the “General appearance : No of pig days Moribund” value [1, 7] of the same compound?
Its value is 0 pig days.

What about the “General appearance : No of pig days Normal” value [1, 7] of the same compound?
Its value is 290 pig days.

What about the “General appearance : share” value [1, 7] of the same compound?
The value was 100%.

And the “General appearance : No of pig days Depressed” value [1, 8]?
Its value is 0 pig days.

And the “General appearance : No of pig days Moribund” value [1, 8]?
Its value is 0 pig days.

What about the “General appearance : No of pig days Normal” value [1, 8] of the same compound?
Its value is 145 pig days.

What about the “General appearance : No of pig days Depressed” value [1, 9] of the same compound?
The value was 0 pig days.

And the “General appearance : No of pig days Moribund” value [1, 9]?
Its value is 0 pig days.

What about the “General appearance : No of pig days Normal” value [1, 9] of the same compound?
Its value is 290 pig days.

What about the “General appearance : share” value [1, 9] of the same compound?
Its value is 100%.

And the “General appearance : No of pig days Depressed” value [1, 10]?
Its value is 0 pig days.

And the “General appearance : No of pig days Moribund” value [1, 10]?
The value was 0 pig days.

And the “General appearance : No of pig days Normal” value [1, 10]?
Its value is 145 pig days.

And the “curative effect on swine dysentery” value ([1]; even at 1 g/ton feed, same level as 50 g/ton feed of carbadox)?
Its value is “curative effect”.

And the degree of lesions ([1]; groups A-C (hygromycin A 10, 5, 1 g/ton feed) versus nonmedicated group E)?
The degree of lesions was “slighter than that of in group E”.

What about the “body weight changes / feed effectiveness” value ([1]; groups A-C, hygromycin A 10, 5, 1 g/ton feed, […], same degree as carbadox group) of the same compound?
The value was “a decrease of feed effectiveness was prevented”.

What about the “fecal score” value ([1]; groups A-D (hygromycin A 10, 5, 1 g/ton feed; carbadox 50 g/ton feed): a little number of pigs revealed soft feces) of the same compound?
The value was “almost thereof was normal”.

What about the MIC [2] of the same compound?
Its MIC is over 100 µg/mL.

How did the MIC [2, 11] turn out when C=C[C@]1(C)C[C@@H](OC(=O)CSCCN(CC)CC)[C@]2(C)[C@H](C)CC[C@]3(CCC(=O)[C@H]32)[C@@H](C)[C@@H]1O [Dynamutilin, tiamulin] was run?
Its MIC is over 100 µg/mL.

And the MIC [3]?
The MIC was 1.56 µg/mL (≈ 3.16 µM).

And the MIC [4]?
The MIC was under 0.2 µg/mL.

What does the source list for CCC[C@@H]1C[C@@H](C(=O)N[C@@H]([C@H]2O[C@H](SC)[C@H](O)[C@@H](O)[C@H]2O)[C@@H](C)O)N(C)C1 [Lincomycin]?
MIC [2, 11]: > 100 µg/mL; MIC [3]: 3.12 µg/mL (≈ 7.67 µM); MIC [4]: < 0.2 µg/mL
